# Source: the supplement of paper PMC12217912
# The other results are listed elsewhere or left out. The full chains were built here from the parent and the listed change. Inactive controls read about 0.05.
# B1: TEV protease; numbered along this chain (parent)
# chain: MGESLFKGPRDYNPISSSICHLTNESDGHTTSLYGIGFGPFIITNKHLFRRNNGTLVVQSLHGVFKVKDTTTLQQHLVDGRDMIIIRMPKDFPPFPQKLKFREPQREERICLVTTNFQTKSMSSMVSDTSCTFPSGDGIFWKHWIQTKDGQCGSPLVSTRDGFIVGIHSASNFTNTNNYFTSVPKNFMELLTNQEAQQWVSGWRLNADSVLWGGHKVFMVKPEEPFQPVKEATQL
# Variants of: B1
# Experiment: raw area under fraction-flipped curve 0-4 h after induction (AUC4h, not background-subtracted), DNA-recorder readout of cleavage of the substrate (dimensionless); higher = more cleavage of the substrate by the protease variant
# Conditions: temperature: 34 °C; time window: 0-4 h after rhamnose induction
# Method: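 In vivo DNA recorder in E. coli TOP10(DE3) ΔrhaA at 34 °C. Each TEVp single-site mutant (parent TEVp 0) is paired with a single-site variant of the 7-mer TEVs (canonical ENLYFQ|S). The substrate sits between flexible linkers in a Bxb1-sfGFP-TEVs-SsrA fusion, so cleavage stabilises Bxb1 and speeds flipping of a recombination array, read by NGS. The value is the raw area under the fraction-flipped curve over 0-4 h after rhamnose induction (AUC4h), with ≥20 reads per time point. It is not background-subtracted; inactive controls average about 0.047.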
# 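Further: Bxb1 expression induced with 0.2% (w/v) L-rhamnose at OD600 near 0.5, cultures sampled hourly, flipped fraction per protease–substrate barcode pair counted by paired-end Illumina sequencing.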
Variant,area with substrate ENLYFCS,area with substrate ENLYFES,area with substrate ENLYFGS,area with substrate ENLYFHS,area with substrate ENLYFIS,area with substrate ENLYFKS,area with substrate ENLYFLS,area with substrate ENLYFMS,area with substrate ENLYFNS,area with substrate ENLYFPS,area with substrate ENLYFTS,area with substrate ENLYFVS,area with substrate ENLYFWS,area with substrate ENLYFFS,area with substrate ENLYFSS,area with substrate ENLYFYS,area with substrate ENLYFDS,area with substrate ENLYFRS
S154W,0.0326,0.0576,0.0559,0.066,0.0473,0.0628,0.0432,0.0386,0.0669,0.0666,0.0451,0.0501,0.056,–,–,–,–,–
Q227K,0.0576,0.0702,–,–,0.0547,0.0641,0.0875,0.0721,0.0653,0.0592,0.0388,–,–,0.0907,0.0554,0.0535,–,–
Q234N,–,0.0619,–,0.0569,0.0599,0.0588,0.0725,0.0686,0.0676,0.0483,0.0559,0.0701,–,0.0546,–,0.0524,0.0567,0.0538
L61H,0.0251,0.0716,0.0662,–,0.06,0.0498,0.0611,0.0618,0.0651,0.0642,0.0598,0.0446,0.0533,0.0616,0.0671,0.0594,0.0468,–
I110T,0.0594,0.0606,0.0585,0.0584,0.0601,0.0634,0.058,0.0558,0.0623,0.067,0.0541,–,0.0453,0.0599,0.0629,–,0.0549,0.0532
Q75F,0.0583,0.0755,–,–,0.0521,0.0615,–,0.0621,0.046,0.0514,0.0636,–,–,0.0641,0.0581,–,–,0.0757
K142I,0.0501,0.0651,0.0414,0.0633,0.0572,–,0.0607,0.0406,0.0596,0.0561,0.0594,–,0.0514,0.0686,0.0697,0.0325,–,0.0451
M88A,0.0634,0.0582,0.0607,–,0.0541,–,0.0759,–,–,0.0536,–,0.0494,0.0294,–,–,0.0892,–,–
I86Q,–,0.0449,–,0.0447,0.0326,0.0343,0.0332,0.0367,0.0367,0.0373,0.0482,–,0.0362,0.047,–,0.0412,0.0411,0.0556
T70I,0.0567,–,0.0586,0.0613,0.0515,0.0747,–,0.0686,0.0541,0.0444,0.0557,0.0674,0.0592,0.0762,0.0673,0.0582,–,0.0402
G150V,0.0488,0.0659,0.062,0.0646,0.0575,0.043,0.0638,0.0615,–,0.0567,0.0612,0.0645,0.0401,0.0579,0.0668,0.0484,0.0623,0.0591
K185G,–,0.0639,–,–,0.0534,0.0553,0.075,0.0196,0.0642,0.0488,0.0437,–,–,0.0734,–,–,0.0629,0.0593
F92C,0.0634,0.0605,0.0562,0.0329,0.0629,0.0607,0.0732,0.0741,0.0474,0.0592,0.0596,0.0658,0.0652,0.0602,0.0526,0.0552,0.0472,0.0486
T132I,0.0461,0.0626,0.0752,0.0627,–,0.0577,–,0.0641,0.0616,0.0696,0.0579,–,0.0522,0.0607,0.0419,–,0.0673,0.0544
D27W,–,0.0598,0.0619,–,0.0411,–,0.0571,0.0653,–,0.0408,0.0534,–,–,0.0648,0.0331,–,0.0627,0.0715
F187M,0.0467,0.0804,–,0.0619,0.0511,0.0566,–,0.0623,0.0544,0.0632,0.061,0.0624,0.0289,0.0691,–,0.0553,–,0.0506
G54Q,0.0447,0.0556,0.0545,0.0549,0.0543,–,0.0652,0.0572,0.0564,0.0639,0.0594,0.0586,0.058,0.067,0.0667,0.0621,0.0537,0.0556
V229F,0.0419,–,0.0605,0.0365,0.0554,0.0616,0.0502,0.0706,0.0676,–,0.0563,–,0.072,0.0614,0.0741,0.0584,0.0487,–
R10M,–,0.0713,–,0.0802,0.059,0.064,–,–,0.0882,0.0541,–,0.0514,0.0532,0.068,–,0.0536,0.0543,–
S127G,0.048,0.0731,0.0443,–,0.0516,0.0623,0.0646,0.0495,0.0563,0.0596,0.054,0.0586,0.0697,0.0701,0.0478,0.066,0.0611,0.0655
L156H,0.0519,0.0552,0.049,0.055,0.0616,0.0823,0.0394,0.0483,0.0538,0.0519,0.0569,0.0585,0.0497,0.0766,0.0595,0.0474,0.0588,0.0555
L156Q,–,0.0601,–,0.0526,0.0387,0.0558,0.0567,0.0535,0.0508,0.0536,0.0476,0.0477,–,0.0661,0.0637,–,0.0512,0.0482
F140G,–,0.0653,0.0525,0.0559,0.0487,–,–,0.0646,0.0647,0.055,0.0644,–,–,0.0699,0.0672,–,0.0484,0.052
I164D,0.0716,0.061,0.0586,0.0615,0.061,0.0486,0.0637,0.0506,0.0492,0.0161,–,0.0683,0.0531,0.0604,0.052,0.0544,–,0.0491
